Earlier results on 12 sequences are cited in paper PMC11006913.

Changes are numbered by the printed parent chain. The list shows a part of the results.

Targets include ARX (Homo sapiens) (UniProt Q96QS3); ARX L343Q (Homo sapiens) (UniProt Q96QS3); ARX P353L (Homo sapiens) (UniProt Q96QS3); ARX P353R (Homo sapiens) (UniProt Q96QS3); ARX R332H (Homo sapiens) (UniProt Q96QS3); ARX T333N (Homo sapiens) (UniProt Q96QS3); ISX (Homo sapiens) (UniProt Q2M1V0); ISX R83Q (Homo sapiens) (UniProt Q2M1V0).
What all share (conditions): PBM; conditions not shown; double strand, one strand shown; scale: upbm affinity estimate (log intensity, higher = more binding, comparable within an allelic series)
For data set [1], the target named is T1, HESX1 E149K (Homo sapiens) (UniProt Q9UBX0).
T1 sequence: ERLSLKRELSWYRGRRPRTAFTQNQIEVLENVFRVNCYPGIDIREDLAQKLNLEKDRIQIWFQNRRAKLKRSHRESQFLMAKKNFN

Data set [2] deals with T2, HESX1 N125S (Homo sapiens) (UniProt Q9UBX0).
T2 sequence: T1 sequence with N31S, K55E

Data set [3] concerns the target T3, HESX1 R160C (Homo sapiens) (UniProt Q9UBX0).
T3 sequence: T1 sequence with K55E, R66C

Data set [4] concerns the target PROP1 R112Q (Homo sapiens) (UniProt O75360).
Data set [5] deals with PROP1 R99Q (Homo sapiens) (UniProt O75360).
Data set [6] concerns the target HOXD13 I297V (Homo sapiens) (UniProt P35453).
The target in data set [7] is HOXD13 I322L (Homo sapiens) (UniProt P35453).
The target of data set [8] is HOXD13 N298S (Homo sapiens) (UniProt P35453).
The target in data set [9] is HOXD13 Q325K (Homo sapiens) (UniProt P35453).
Data set [10] concerns the target HOXD13 Q325R (Homo sapiens) (UniProt P35453).
The target in data set [11] is HOXD13 R306W (Homo sapiens) (UniProt P35453).
Data set [12] has as its target HOXD13 S316C (Homo sapiens) (UniProt P35453).

With AATTATCT [8-mer AATTATCT], the binding signal was 12.6 with ARX (Homo sapiens); 10.9 with ARX L343Q (Homo sapiens); 12.1 in the data set with ARX P353L (Homo sapiens); 10.8 with ARX P353R (Homo sapiens); 11.1 with ARX R332H (Homo sapiens); 11.8 with ARX T333N (Homo sapiens). The binding signal was 11.4 in data set [1]; 11.6 in data set [2]; 10.3 in [3]; 12.6 in [4]; 12.1 in [5].

For AATTAGCT [8-mer AATTAGCT], the binding signal was 12.8 with ARX (Homo sapiens); 10.9 with ARX L343Q (Homo sapiens); 12.5 with ARX P353L (Homo sapiens); 10.6 with ARX P353R (Homo sapiens); 10.9 with ARX R332H (Homo sapiens); 12 with ARX T333N (Homo sapiens). Also, the binding signal is 11.5 in data set [1]; 11.1 in [2]; 14.5 with ISX (Homo sapiens); 13.4 with ISX R83Q (Homo sapiens); 12.7 in data set [4]; 12.2 in [5].

Turning to AACAATTA [8-mer AACAATTA], the binding signal with ARX (Homo sapiens) was 12.6; with ARX L343Q (Homo sapiens), 10.9; with ARX P353L (Homo sapiens), 12; with ARX P353R (Homo sapiens), 10.8; in the data set with ARX R332H (Homo sapiens), 11; in the data set with ARX T333N (Homo sapiens), 11.8. In addition, the binding signal in data set [1] is 11.4; in data set [2] it was 11.6; in data set [3] it was 10.5; in the data set with ISX (Homo sapiens) it was 14.8; in the data set with ISX R83Q (Homo sapiens) it was 13.4; in [4] it was 12.6. For the same sequence, the binding signal in data set [5] was 12.1.

Regarding CCGGAGGA [8-mer CCGGAGGA], the binding signal was 10.2 with ARX (Homo sapiens); 10.2 in the data set with ARX L343Q (Homo sapiens); 10.3 with ARX P353L (Homo sapiens); 10.2 in the data set with ARX P353R (Homo sapiens); 10.1 in the data set with ARX R332H (Homo sapiens); 10.3 in the data set with ARX T333N (Homo sapiens). The binding signal in data set [6] was 9.16; in data set [7] it was 9.15; in data set [8], 9.15; in [9], 9.66; in [10], 9.19; in [11], 9.36. For the same sequence, the binding signal in [12] was 9.19.

Regarding TAATTACA [8-mer TAATTACA], the binding signal is 13 with ARX (Homo sapiens); 11 in the data set with ARX L343Q (Homo sapiens); 12.5 with ARX P353L (Homo sapiens); 10.9 in the data set with ARX P353R (Homo sapiens); 11.1 in the data set with ARX R332H (Homo sapiens); 12.1 with ARX T333N (Homo sapiens). Also, the binding signal in data set [1] was 11.7; in [2], 12.6; in data set [3] it was 10.5; in the data set with ISX (Homo sapiens), 15.2; in the data set with ISX R83Q (Homo sapiens) it was 13.9; in data set [4], 12.8. In addition, in data set [5], the binding signal is 12.3.

For the sequence CTAATTGA [8-mer CTAATTGA], the binding signal in the data set with ARX (Homo sapiens) was 13.2; in the data set with ARX L343Q (Homo sapiens), 10.8; with ARX P353L (Homo sapiens), 12.9; in the data set with ARX P353R (Homo sapiens), 10.6; in the data set with ARX R332H (Homo sapiens), 11; with ARX T333N (Homo sapiens) it was 12.2. For the same sequence, the binding signal in [1] is 11.8; in data set [2], 12.9; in data set [3] it was 10.2; in the data set with ISX (Homo sapiens), 15.4; with ISX R83Q (Homo sapiens) it was 14.7; in data set [4], 12.9. In data set [5], the binding signal was 12.4.

GGTAATTA [8-mer GGTAATTA]: the binding signal is 13.1 with ARX (Homo sapiens); 11 with ARX L343Q (Homo sapiens); 12.8 with ARX P353L (Homo sapiens); 10.9 with ARX P353R (Homo sapiens); 11.1 in the data set with ARX R332H (Homo sapiens); 12.3 with ARX T333N (Homo sapiens). In addition, the binding signal in [1] is 11.8; in [2], 13.1; in data set [3] it was 10.4; with ISX (Homo sapiens), 15.4; with ISX R83Q (Homo sapiens) it was 14.7; in data set [4], 12.9. The binding signal in data set [5] was 12.4.

With AATTAGAG [8-mer AATTAGAG], the binding signal in the data set with ARX (Homo sapiens) was 12.7; with ARX L343Q (Homo sapiens) it was 10.8; in the data set with ARX P353L (Homo sapiens), 12.2; in the data set with ARX P353R (Homo sapiens), 10.7; in the data set with ARX R332H (Homo sapiens), 10.9; in the data set with ARX T333N (Homo sapiens), 11.8. The results for the binding signal (in data set [2]; with ISX (Homo sapiens); with ISX R83Q (Homo sapiens)) were 11.1, 14.6 and 13.3, respectively.

As to ACAATTAT [8-mer ACAATTAT], the binding signal with ARX (Homo sapiens) is 12.4; in the data set with ARX L343Q (Homo sapiens), 11; with ARX P353L (Homo sapiens), 12; with ARX P353R (Homo sapiens), 10.9; with ARX R332H (Homo sapiens), 11.1; in the data set with ARX T333N (Homo sapiens) it was 11.7. For the same sequence, the binding signal is 11.4 in data set [1]; 11.7 in [2]; 10.4 in data set [3]; 14.6 with ISX (Homo sapiens); 13 with ISX R83Q (Homo sapiens); 12.6 in data set [4]. Further, the binding signal in [5] was 12.1.

On to CCGCGTCG [8-mer CCGCGTCG], for which the binding signal is 10.2 in the data set with ARX (Homo sapiens); 10.2 in the data set with ARX L343Q (Homo sapiens); 10.2 in the data set with ARX P353L (Homo sapiens); 10.1 in the data set with ARX P353R (Homo sapiens); 10.2 with ARX R332H (Homo sapiens); 10.3 with ARX T333N (Homo sapiens). Also, the binding signal in data set [6] is 9.53; in [7] it was 9.56; in [8], 9.4; in data set [9], 9.54; in data set [10], 9.36; in [11] it was 9.39. In addition, in [12], the binding signal was 9.38.

With CCTGGGCC [8-mer CCTGGGCC], the binding signal was 10.1 in the data set with ARX (Homo sapiens); 9.98 in the data set with ARX L343Q (Homo sapiens); 10.1 with ARX P353L (Homo sapiens); 9.96 with ARX P353R (Homo sapiens); 9.94 with ARX R332H (Homo sapiens); 10.1 with ARX T333N (Homo sapiens). Also, the binding signal with ISX (Homo sapiens) is 9.77; with ISX R83Q (Homo sapiens) it was 9.7.

With GGCCCGCC [8-mer GGCCCGCC], the binding signal is 10.1 in the data set with ARX (Homo sapiens); 10.1 with ARX L343Q (Homo sapiens); 10.1 in the data set with ARX P353L (Homo sapiens); 9.97 with ARX P353R (Homo sapiens); 9.99 with ARX R332H (Homo sapiens); 10.2 with ARX T333N (Homo sapiens). Also, the binding signal was 9.71 with ISX (Homo sapiens) and 9.65 in the data set with ISX R83Q (Homo sapiens).
